Here are results for one molecule from article PMC11753496, “A novel pathological mutant reveals the role of torsional flexibility in the serpin breach in adoption of an aggregation‐prone intermediate” (The Febs Journal, 2024).

One data set concerns the target bovine α-chymotrypsin (bovine). The data set is described as follows: cell-based or functional assay.
Data set [1] concerns the molecule itself. The data set is described as follows: FRET or BRET; purified AAT labelled with Atto-488-NHS and Atto-594-NHS via primary amines; polymerisation followed by the increase in FRET (excitation 470 nm, emission 605 ± 15 nm) at temperatures between 50 and 65 °C; half-times on an Arrhenius plot. (In general: In BRET a luciferase serves as donor, and the signal depends on an acceptor being close.)

B1: recombinant Gly192Cys alpha-1-antitrypsin (AAT Sydney) (natural protein)
chain: not shown
notes: alpha-1-antitrypsin (AAT, SERPINA1), human, with the patient mutation Gly192Cys (c.646G>T) put into wild-type AAT in pQE-30; also called Gly192Cys AAT; G192C
For B1, in the data set with bovine α-chymotrypsin, the “stoichiometry of inhibition: residual activity of bovine α-chymotrypsin at various inhibitor-to-enzyme ratios” value was 1.7 fold molar excess (inhibitor over enzyme). In addition, the “half-time of polymerisation at 54.8 °C, fold faster than M AAT” value in data set [1] was 3.8 fold.
